The record followed here is the RNAGym collection of RNA variant scans (doi:10.7554/elife.90254).

To fix the notation:
B1: OR4K15 (parent)
chain: GUUAACGGUCAUAGGCCAUGGAAACUAGGAGCACCAUUUCGCUGCCAGUGAAGAAAUGAACAAAGAAAAUCUGGGCCAGGCAGGCAUCAAAAGAAAUAGUCUUGCGCUCAACCAGAAAGUCUGUAAUCAUUUUAAGGGUA

The source gives no read counts; variants with many changes may rest on few reads.

The data set covers variants of B1. The data set can be described thus: self-cleavage, relative activity (ratio to wild type); higher = more cleavage; in vitro, sequencing; the parent is a self-cleaving ribozyme.
Take GUUAACGGUCAUAGGCCAUGGAAACUAGGAGCACCAUUUCGCUGCCAGUGGAGAAUUGAACAAAGAAAAUCUGGGCCAGGCAGGCACCAAAAGAAAUAGUCUUGCGCUCAACCAGAAAGUCUGUAAUCAUUUUAAGGGUA: the self-cleavage worked out at 1.12. For GUUAACGGUCAUAGGCCAUGGAAACUAGGAGCACCAUUUCGCUGCCAGUGGAGAAAUGGACAAAGAAAAUCUGGGCCAGGCAGGCAUCAAAAGAAACAGUCUUGCGCUCAACCAGAAAGUCUGUAAUCAUUUUAAGGGUA, the self-cleavage came out at 0.58.

For the variant GUUAACGGUCAUAGGCCAUGGAAACUAGGAGCACCAUUUCGCUGCCAGUAAGGAAAUGAACAAAGAAAAUCUGGGCCAGGCAGGCAUCAGAAGAAAUAGUCUUGCGCUCAACCAGAAAGUCUGUAAUCAAUUUAAGGGUA, the self-cleavage was 0.61. The value for GUUAACGGUCAUAGGCCAUGGAAACUAGGAGCACCAUUUCGCUGCCAGUGGAGAGAUGAACAAAGAAAAUCUGGGCCUGGCGGGCAUCAAAAGAAAUAGUCUUGCGCUCAACCAGUAAGUCUGUAAUCAUUUUAAGGGUA was 0.03; that for GUUAACGGUCAUAGGCCAUGGAAACUAGGAGCACCAUUUCGCUGCCAGUGGAGUAAUGAACAAAGAAAAUCUGGGCCAGGCAGGCAUCUAAAGAAAUAGUCUUGCGCUCAACCAGAAAGUCUGUAAUCAUUUUAAGGGUA was 0.76.

As to GUUAACGGUCAUAGGCCAUGGAAACUAGGAGCACCAUUUCGCUGCCAGUGCAGAAAUGAACAAAGAGAAUCUGGGCCAGGCGGGCAUCAAAAGAAAUAGUCUUGCGCUCAACCAGAAAGUCUGUAAUCAUUUUAAGGGUA, the self-cleavage came to 0.68. As to GUUAACGGUCAUAGGCCAUGGAAACUAGGAGCACCAUUUCGCUGCCAGUGGAGUAAUGAACAAAGAAAAUCUGGGCCAGGCAGGCAUCAAAAGAAAUAGUCUUGCGCUCAACCAGAAAGUCUGUAACCAUUUUAAGGGUA, the self-cleavage stood at 1.78. The value for GUUAACGGUCAUAGGCCAUGGAAACUAGGAGCACCAUUUCGCUGCCAGUGGGGAAAUGAACAAAGAAAAUCUGGGCCAGGCGGGCAUCAAAAGAAAUAGUCUUGCGCUCAACCAGAAAGUCUGUAAUCAUUUUAAGGGUA was 0.59; that for GUUAACGGUCAUAGGCCAUGGAAACUAGGAGCACCAUUUCGCUGCCAGUGGAGAAAUGAGCAAAGAAAAUCUGGGCCAGGCAGGCAUCAAAAGGAAUAGUCUUGCGCUCAACCAGAAAGUCUGUAAUCAUUUCAAGGGUA was 1.74; that for GUUAACGGUCAUAGGCCAUGGAAACUAGGAGCACCAUUUCGCUGCCAGUGGAGGAAUGAACAAAGAAAAUCUGGGCCAGGCAUGCAUCACAAGAAAUAGUCUUGCGCUCAACCAGCAAGUCUGUAACCAUUUUAAGGGUA was 0.01. The value for GUUAACGGUCAUAGGCCAUGGAAACUAGGAGCACCAUUUCGCUGCCAGUGGAGCAAUGAACAAAGAAAAUCUGGGCCGGGCAGGCCUCAAAAGAAAUAGUCUUGCGCUCAACCAGAAAGUCUGUAAUCAUUUUGAGGGUA was 0.05; that for GUUAACGGUCAUAGGCCAUGGAAACUAGGAGCACCAUUUCGCUGCCAGUGGAGGAAUGAACAAAGAAAAUCUGGGCCAGGCAGGCAUCAAAAGAGAUAGUCUUGCGCUCAACCAGAAAGUCUGUAGUCAUAUUAAGGGUA was 1.86. The result for GUUAACGGUCAUAGGCCAUGGAAACUAGGAGCACCAUUUCGCUGCCAGUGGAGGAAUGAACAAAGAAAAUCUGGGCCAGGCAGGCAUCAAGAGAAAUAGUCUUGCGCUCAACCAGAAAGUCUGUAAUCAUUUUAAGGGUA reads 1.98; that for GUUAACGGUCAUAGGCCAUGGAAACUAGGAGCACCAUUUCGCUGCCAGUGGAGGAAUGAACAAAGAAAAUCUGGGCCAGGCAGGCAUCAAAAGAAAUAGUCUUGCGCUCAACCAGAAAGUCUGUAAUCAUUCUAAGGGUA, 1.55. For the variant GUUAACGGUCAUAGGCCAUGGAAACUAGGAGCACCAUUUCGCUGCCAGUGGGGAAAUGAACAAAGAAAAUCUGGGCCAGGCAGGCAUCAAAAGAAAUAGUCUUGCGCUCAACCAGAAAGACUGUAAUCAUUUUAGGGGUA, the self-cleavage was 1.11. As to GUUAACGGUCAUAGGCCAUGGAAACUAGGAGCACCAUUUCGCUGCCAGUGGAGAAUUGAACAAAGAAAAUCUGGGCCAGGCAGGCAUCAAAAGAAAUAGUCUUGCGCUCAACCUGAAAGUCUGCAAUCAUUUUAAGGGUA, the self-cleavage worked out at 0.02.

Consider GUUAACGGUCAUAGGCCAUGGAAACUAGGAGCACCAUUUCGCUGCCAGUUAAGAAAUGAACAAAGGAAAUCUGGGCCAGGCAGGCAUCAAAAGAAAUAGUCUUGCGCUCAAUCAGAAAGUCUGUUAUCAUUUUAAGGGUA, for which the self-cleavage stood at 0.03. The result for GUUAACGGUCAUAGGCCAUGGAAACUAGGAGCACCAUUUCGCUGCCAGUGCAGAAAUGAACAAAGAAAGUCCGGGCCAGGCAGGCAUCAAAAGAAAUAGUCUUGCGCUCAACCAGAAAGUCUGUAAUCAUUUUAAGGGUA reads 0.24; that for GUUAACGGUCAUAGGCCAUGGAAACUAGGAGCACCAUUUCGCUGCCAGUGGUGAAAUGAACAAAGAAAAUCUGGGCCAGGCAGGCAUCCAAAGAAAUAGUCUUGCGCUCAACCAGAAAGUCUGUAAUCAUUUUAAGGGUA, 0.67; that for GUUAACGGUCAUAGGCCAUGGAAACUAGGAGCACCAUUUCGCUGCCAGUAAAGAAAUGAACAAAGAAAAUCUGGGCCAGGCAUGCAUCAAAAGAAAUAGUCUUGCGCUCAACCAGAAAGUCUGUAAUCAUUCUAAGGGUA, 0.97.

Take GUUAACGGUCAUAGGCCAUGGAAACUAGGAGCACCAUUUCGCUGCCAGUGGAGGAAUGAACAAAGAAAAUCUGGGCCAGGCAGGCAUCAAAAGAAAUAGUCUUGCGCUCAACCAUAAAGUCUGUAAUCAUUUUAAGGGCA: the self-cleavage was 0.14. Consider GUUAACGGUCAUAGGCCAUGGAAACUAGGAGCACCAUUUCGCUGCCAGUUGAGAAAUGAACAAAGAAGAUCUGGGCCAGGCAGGCAUCAAAAGAAAUAGUCUUGCGCUCAACCAGAAAGUCUGUAACCAUUUUAAGGGUA, for which the self-cleavage came to 0.83.

With GUUAACGGUCAUAGGCCAUGGAAACUAGGAGCACCAUUUCGCUGCCAGUAAAGAAAUGAACAAAGAAAAUCUGGGCCAGGCGGGCAUCAAAAGAAGUAGUCUUGCGCUCAACCAGAAAGCCUGCAAUCAUUUUAAGGGUA, the self-cleavage was 0.12.

Consider GUUAACGGUCAUAGGCCAUGGAAACUAGGAGCACCAUUUCGCUGCCAGUGCAGAAAUGAACAAAGAGGAUCUGGGCCAGGCAGGCAUCAAAAGAAAUAGUCUUGCGCUCAACCAGAAAGUCUGUAAUCAUUUUAAGGGUA, for which the self-cleavage was determined as 1.38. The result for GUUAACGGUCAUAGGCCAUGGAAACUAGGAGCACCAUUUCGCUGCCAGUGGGGAAAUGAACAAAGUAAAUCUGGGCCAGGCAGGCAUCAAAAGAAAUAGUCUUGCGCUCAACCAGAAAGUCUGUAAUCAUUUUAAGGGUA reads 1.45; that for GUUAACGGUCAUAGGCCAUGGAAACUAGGAGCACCAUUUCGCUGCCAGUAAAGAAAUGAACAAAGAAAAUCUGGGCCAGGCAGGCAUCAAAAGAAAUAGUCUCGCGCUCAACCAGAAAGACUGUAAUCAUUUUAAGGGUA, 1.73; that for GUUAACGGUCAUAGGCCAUGGAAACUAGGAGCACCAUUUCGCUGCCAGUGGAGUAAUGGACAAAGAAAAUCUGGGCCCGGCAGGCAUCAAAAGAAGUAGUCUUGCGCCCAACCAGAAAGUCUGUAAUCAUUUUAAGGGUA, 0.07.

Consider GUUAACGGUCAUAGGCCAUGGAAACUAGGAGCACCAUUUCGCUGCCAGUGGGGAAAUGAACAAAGAAAAUCAGGGCCAGGCAGGCAUCAAAAGAAAUAGUCUUGCGCCCAACCAGAAAGUCUGUAAUCAUUUUAAGGGUA, for which the self-cleavage was determined as 0.15. GUUAACGGUCAUAGGCCAUGGAAACUAGGAGCACCAUUUCGCUGCCAGUGCAGAAAUGAACAAAGAAAAUCUGGGCCAGGUAGGCAUCAAAAGGAAUAGUCUUGCGCUCAACCAGAAAGUCUGUAACCAUUUUAAGGGUA: the self-cleavage turned out to be 0.01. Turning to GUUAACGGUCAUAGGCCAUGGAAACUAGGAGCACCAUUUCGCUGCCAGUGGAGAGAUGAACAAAGAAAAUCAGGGCCAGGCAGGCAUCAAAAGAAAUAGUCUUGCGCUCAACCAGAAAGUCUGUAAUCAUUUUAAGGGUA, the self-cleavage worked out at 0.19. With GUUAACGGUCAUAGGCCAUGGAAACUAGGAGCACCAUUUCGCUGCCAGUGGAGAAGUGAACAAAGAAAAUCUGGGCCAGGCAGGCAUCAAAAGAAAUAGUCUUGCGCUCAACCAGAAAGCCUGUAAUCAUUCUAAGGGUA, the self-cleavage worked out at 0.24. As to GUUAACGGUCAUAGGCCAUGGAAACUAGGAGCACCAUUUCGCUGCCAGUAAAGAAAUGAGCAAAGAAAAUCUGGGCCAGGCAGGCAUCAAAAGAAAUAGUCUUGCGCUCAACCAGGAAGUCUGUAAUCAUUUUAAGGGUA, the self-cleavage amounted to 0.64. The result for GUUAACGGUCAUAGGCCAUGGAAACUAGGAGCACCAUUUCGCUGCCAGUCAAGGAAUGAACAAAGAAAAUCUGGGCCAGGCAGGCAUCAAAAGAAAUAGUCCUGCGCUCAACCAGAAAGUCUGUAAUCAUUUUAAGGGUA reads 2.11; that for GUUAACGGUCAUAGGCCAUGGAAACUAGGAGCACCAUUUCGCUGCCAGUAAAGAGAUGAACAAAGAAAAUCUGGGCCAGGCAGGCAUCAAAAGAAAUAGUCCUGCGCUCAACCAGAAAGUCUGUAAUCAUUUUAAGGGUA, 1.59; that for GUUAACGGUCAUAGGCCAUGGAAACUAGGAGCACCAUUUCGCUGCCAGUGGAGAAAUGUACAAAGAAAAUCUGGGCCAGGCAGGCAUCAAAAGAAAUAGUCUCGCGCUCAACCAGAAAGUCUGUAAUCAUUUUAAGGGUA, 1.1. Regarding GUUAACGGUCAUAGGCCAUGGAAACUAGGAGCACCAUUUCGCUGCCAGUUAAGAAAUGAACUAAGAAAAUCUGGGCCAGGCAGGCAUCAAAAGAAAUAGUCUUGCGCUCAACCAGAAAGUCUGUAAUCAUUUUGAGGGUA, the self-cleavage turned out to be 1.56.

Turning to GUUAACGGUCAUAGGCCAUGGAAACUAGGAGCACCAUUUCGCUGCCAGUGGAGAAAUGGACAAAGAAAAUCUGGGCCAGGCAGGCAUCAAAAGAAAUAGUUCUGCGCUCAACCAGAAAGUCUGUAAUCAUUUUAAGGGUA, the self-cleavage was determined as 1.79. The result for GUUAACGGUCAUAGGCCAUGGAAACUAGGAGCACCAUUUCGCUGCCAGUGGAGAUAUGAACAAAGGAAAUCUGGGCCAGGCAGGCAUCAAAAGAAAUAGUCUUGCGCUCAACCAGAAAGUCUGUAAUCAUUUUAAGGGUA reads 1.73; that for GUUAACGGUCAUAGGCCAUGGAAACUAGGAGCACCAUUUCGCUGCCAGUGGGGAAAUGAACAAAGAAAAUCUGGGCCAGGCAGGCAUCAAAAGAAAUAGUCUUGCGCUCGACCAGAAAGUCUGUAAUCAUUUUAAGGGUA, 0.14. GUUAACGGUCAUAGGCCAUGGAAACUAGGAGCACCAUUUCGCUGCCAGUGGUGAGAUGAACAAAGAAAAUCUGGGCCAGGCAGGCAUCAAAAGAAAUAGACCUGCGCUCAACCAGAAAGUCUGUAAUCAUUUUAAGGGUA: the self-cleavage worked out at 1.17. The result for GUUAACGGUCAUAGGCCAUGGAAACUAGGAGCACCAUUUCGCUGCCAGUGGAGGAGUGAACAAAGAAAAUCUGGGCCAGGCGGGCAUCAAAAGAAAUAGUCUUGCGCUCAACCAGAAAGUCUGUAAUCAUUUUAAGGGUA reads 0.29.
